From paper doi:10.1101/2023.12.06.570398 (bioRxiv, 2023)

Biological target: T1, human NRP1 (residues 22-644) (human, UniProt O14786 22-644)
T1 sequence (looked up): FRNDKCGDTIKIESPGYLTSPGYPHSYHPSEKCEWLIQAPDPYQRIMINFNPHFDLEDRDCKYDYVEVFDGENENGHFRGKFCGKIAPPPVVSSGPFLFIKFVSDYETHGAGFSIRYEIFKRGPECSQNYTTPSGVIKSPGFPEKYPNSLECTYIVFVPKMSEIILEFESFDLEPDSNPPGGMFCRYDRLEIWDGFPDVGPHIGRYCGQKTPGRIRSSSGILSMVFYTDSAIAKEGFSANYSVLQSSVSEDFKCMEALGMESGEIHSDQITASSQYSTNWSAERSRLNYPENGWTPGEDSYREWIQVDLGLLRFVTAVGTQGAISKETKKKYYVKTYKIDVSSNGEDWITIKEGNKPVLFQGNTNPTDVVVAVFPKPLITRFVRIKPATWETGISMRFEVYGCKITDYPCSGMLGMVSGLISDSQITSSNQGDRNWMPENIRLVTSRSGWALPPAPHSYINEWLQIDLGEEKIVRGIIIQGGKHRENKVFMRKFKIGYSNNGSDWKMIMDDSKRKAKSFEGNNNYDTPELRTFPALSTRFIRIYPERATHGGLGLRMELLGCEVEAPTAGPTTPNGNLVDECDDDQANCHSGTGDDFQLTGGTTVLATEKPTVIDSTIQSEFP
Assay: MST

B1: fluorescent human NGF (ligand)
chain: not shown
modifications: fluorescent label (dye and site not stated)
For B1, the Kd was 35.5 nM.
